Source: PMC12136788
The other results are listed elsewhere or left out.

T1: UNK ZnF1-6 (called full-length) (human, UniProt Q9C0B0 30-357)
T1 sequence: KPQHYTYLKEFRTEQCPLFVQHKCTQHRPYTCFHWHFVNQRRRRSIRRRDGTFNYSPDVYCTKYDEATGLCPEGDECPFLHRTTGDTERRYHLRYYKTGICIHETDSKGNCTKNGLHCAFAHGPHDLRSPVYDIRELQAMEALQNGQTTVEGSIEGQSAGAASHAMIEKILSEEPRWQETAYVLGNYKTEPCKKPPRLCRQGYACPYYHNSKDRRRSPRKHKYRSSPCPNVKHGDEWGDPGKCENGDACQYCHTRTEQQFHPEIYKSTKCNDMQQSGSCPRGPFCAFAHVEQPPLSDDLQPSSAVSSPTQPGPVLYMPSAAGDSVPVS

B1: chr11:27366961:27367062:-|3pUTR|ENSG00000205213|msi1|total|mutant (ssRNA)
RNA: GGGAGUUCUACAGUCCGACGAUCUGAAUACUUCCUAAUAUCGUUGGCUCUACUAAUAUUUUCCAAUUUGCUGGGAUGUCACCCCGCAACCGCUUGGAUUAUACCGAAAGUAAACUGUGGUCAAUACUUGCAUUUAAUCCGACGCAACAGAGGAUUGAGCAUCA
B2: chr1:232398519:232398625:-|3pUTR|ENSG00000116991|unk|FALSE|unique (ssRNA)
RNA: GGGAGUUCUACAGUCCGACGAUCACAGUAGUUUUAUUUCCACAGCCACAUUACCAUAGCAAUAAGAAAGGAGGCAUAGUACAUAGUUGGAAAAGCUUUGUGGGGGGAUUAAAAAAAAAAAAAAGCACUGUUGUGUUUAACACUCAACAGAGGAUUGAGCAUCA
B3: chr7:157269180:157269282:+|3pUTR|ENSG00000009335|unk|FALSE|unique (ssRNA)
RNA: GGGAGUUCUACAGUCCGACGAUCAUUUUAGGUUGUUUUAUGUUGAAUGUUCUAUAUCUUAUUAGUUAAUUUGUAUAUUUUAUUAGUAUUUUGGAAAUAGCAUAUCUGAGACUGAAGAGAAAUUGACAAUUCACUUAUUUGUGGCAACAGAGGAUUGAGCAUCA
B4: chr15:34978960:34979061:-|3pUTR|ENSG00000198146|msi1|FALSE|unique (ssRNA)
RNA: GGGAGUUCUACAGUCCGACGAUCGCCCUCUGUAUCCAUGUACUCUGCAUCUGUGGAUUAAACCAAUUGCAGAUCAAAAAUAUUAGAAAAAAUAAAAAUAAUACAAAUAAAAAUACAGUAUAACAGUUAUUUAAAUAGCAUUUACAACAGAGGAUUGAGCAUCA
B5: chr2:96875881:96876275:-|three_prime_utr|ENSG00000168754|control|control|control (ssRNA)
RNA: GGGAGUUCUACAGUCCGACGAUCUCGCCCACCCCUCAGCCCUCCUCCCAGCCAUCUCCUCUUCCCUAAGGCCUCUGUCUCCAUAGCUCUGGUUUCCCUGGGCCUCAGUCCUCCCCACCCUCCUUCCUCUGUCUCCCUGUCACUCAACAGAGGAUUGAGCAUCA
B6: chr11:74333230:74333331:-|3pUTR|ENSG00000165434|msi1|total|mutant (ssRNA)
RNA: GGGAGUUCUACAGUCCGACGAUCUGAGUCUUUUAUUGAAGGGUUCAAAGUAAGAAAUACUAUGCCACCGUGUUCUCCAUCUCCCGUGAAGACAGAACCAGAGGGAAUAAGGAUCUUUUUUUUAAAGACAGCAUGGAAAGUUUACAACAGAGGAUUGAGCAUCA
B7: chr5:113594843:113594944:+|3pUTR|ENSG00000047188|msi1|FALSE|bound_elsewhere (ssRNA)
RNA: GGGAGUUCUACAGUCCGACGAUCCAACAUAAAAUCUUGAGAACCUUCUACUUUCUCUGGGAAAGCAUUAUAUAGUGGUGCAUUAGUUUAGAAAGUCAGCUAUGAUUUUGCCUAUAGUUCUAGUUAUUAGCUUUGGGGUUUUCUCAACAGAGGAUUGAGCAUCA
B8: chr8:22006149:22006250:+|3pUTR|ENSG00000130227|msi1|total|mutant (ssRNA)
RNA: GGGAGUUCUACAGUCCGACGAUCGAAUGUAUGAACUGGAGGAAGUUACUACAGUGGAAGGGUUCUUAAUAACAAGGUCUACCCCGCAUGAAGUAUUUAACAUUCUCCCAUCCCUUAAAAAAUAUACAUUUUUAUAAAAUGAAACAACAGAGGAUUGAGCAUCA
B9: chr7:41961162:41961264:-|3pUTR|ENSG00000106571|unk|total|mutant (ssRNA)
RNA: GGGAGUUCUACAGUCCGACGAUCCCCUUGUGUAUCCUGCAGACAUGUAAAAUAAAAUACAAGUUCAUUUUUUUCACCUUUUUCCGAUUUUUUUAAAAAAUAAAAUGUGUAAUCCUUUUUUUAAAAGAAACACAUGUAAAUACACAACAGAGGAUUGAGCAUCA
B10: chr1:3780741:3780842:-|3pUTR|ENSG00000130764|unk|total|mutant (ssRNA)
RNA: GGGAGUUCUACAGUCCGACGAUCCCAAGCCGCUGGGACUACAGGUGUGUGCCACUAAGCUCAGCUAAUUUUUGUAUUUUCCGCCGAGACGGGGUUUCACCAUUUUGACCAGGAUGGUCUUGAUCUCUUGACCUCAUGAUCUGUCAACAGAGGAUUGAGCAUCA
B11: chr1:198253062:198253183:+|CDS|ENSG00000151414|unk|FALSE|unique (ssRNA)
RNA: GGGAGUUCUACAGUCCGACGAUCAUGGGCUAUAAUACAUUAGCCAACUUUCGAAUAGAAAAGAAAAUUGGUCGCGGACAAUUUAGUGAAGUUUAUAGAGCAGCCUGUCUCUUGGAUGGAGUACCAGUAGCUUUAAAAAAAGUGCAACAGAGGAUUGAGCAUCA
B12: chr1:32196777:32196878:+|3pUTR|ENSG00000084652|msi1|FALSE|unique (ssRNA)
RNA: GGGAGUUCUACAGUCCGACGAUCUUUGAAGCUAGUUCAUUGUCCUGCAGGUCCCUUCAUCUUCCAUACCUAGCCCACUCUUUUAGCCCUUACCUUAAAUCUCUCAGAUAAGUUGGUUCACAAAGAAUGUUAAGUACUGAAUCACAACAGAGGAUUGAGCAUCA
B13: chrX:93670929:93671783:-|three_prime_utr|ENSG00000186310|control|control|control (ssRNA)
RNA: GGGAGUUCUACAGUCCGACGAUCUCAUACAGCCUUGAAAAAAGUAAAACCCUGACCUGUAACCUGAACACUAUUAUUCCUUAUAGUCAAGUUUUUGUGGUUUCUUGGUAGUCUAUAUUUUAAAAAUAGUCCUAAAAAGUGUCUCAACAGAGGAUUGAGCAUCA
B14: chr3:57561443:57561544:+|3pUTR|ENSG00000174840|unk|total|mutant (ssRNA)
RNA: GGGAGUUCUACAGUCCGACGAUCGAAAUUUAAAUAUGAAGCCAAACUUUUUAAAAUCCGAAACUACAAAUGGUUAUACUGAUCCGUGUCCCGCCCCGAGUGGUAACCAUGCUUUACUAAUUCAGUUAUGAAAUACAUUAUUUACAACAGAGGAUUGAGCAUCA
B15: chr5:40767470:40767586:-|CDS|ENSG00000132356|unk|FALSE|unique (ssRNA)
RNA: GGGAGUUCUACAGUCCGACGAUCUUUAAGAAGAUAUGUGAUGGGAUCUUCUAUACCCCUCAAUAUUUAAAUCCUUCUGUGAUUAGCCUUUUGAAACAUAUGCUGCAGGUGGAUCCCAUGAAGAGGGCCACAAUCAAAGAUAUCCAACAGAGGAUUGAGCAUCA
B16: chr8:23844609:23844711:-|3pUTR|ENSG00000159167|msi1|FALSE|unique (ssRNA)
RNA: GGGAGUUCUACAGUCCGACGAUCUUUAGGGGUGUUGACACACCAGUUUUGAGUGUACUGUGCCUGGUUUGAUUUUUUUAAAGUAGUUCCUAUUUUCUAUCCCCCUUAAAGAAAAUUGCAUGAAACUAGGCUUCUGUAAUCAAUCAACAGAGGAUUGAGCAUCA
B17: chr6:111661451:111661552:-|3pUTR|ENSG00000010810|msi1|total|mutant (ssRNA)
RNA: GGGAGUUCUACAGUCCGACGAUCCUUUGGAAAAUGCAUUGUAUCGAUGUUAUGUAAAAGGCCAAACCUCUGUUCAGUGUAAACCGUUACUCCAGUGCCAACAAUCCCCGUGCUUUCCUUUUUUAAAAAUGCAAAUCCUAUGUGCAACAGAGGAUUGAGCAUCA
B18: chr4:65323451:65323552:-|3pUTR|ENSG00000145242|msi1|FALSE|unique (ssRNA)
RNA: GGGAGUUCUACAGUCCGACGAUCAUCAAGAAAAAGUACAAUACAGGGUGUAUAUUUAUUUUUUGUGUUAUAAAGUUUACUUUUAGUUGCUCUUCUAGAGAUUAUUAGGUAAUAAAUGUGUAUAUACUGUAUAAUUUGCAAUAUCAACAGAGGAUUGAGCAUCA
B19: chr3:113720845:113720875:-|3pUTR|ENSG00000121579|msi1_unk|total|mutant (ssRNA)
RNA: GGGAGUUCUACAGUCCGACGAUCCCUUUUUCUUCAGUAAACCCAACAACCGUCUAACCUUAAAAAUUGAGUUGAUGUCCUUACCGGUCACUACCCCUAAAUAAACCUGAAGCAGGUGUUUUCUCUUGGACAUACUAAAAAAUACAACAGAGGAUUGAGCAUCA
B20: chr1:93180074:93180188:-|CDS|ENSG00000117500|unk|total|mutant (ssRNA)
RNA: GGGAGUUCUACAGUCCGACGAUCCUGGCCGCUCUGCCUCCGGUGCUGCUGCCUGGGGCGGCCGGCUUCACACCUUCCCUCGACCGCGACUUCACCUUUACCCUUCCCGCCGGCCAGAAGGAGUGCUUCUACCAGCCCAUGCCCCAACAGAGGAUUGAGCAUCA
B21: chr15:64957256:64957357:+|3pUTR|ENSG00000166839|msi1|FALSE|unique (ssRNA)
RNA: GGGAGUUCUACAGUCCGACGAUCGCUGGAAAAUUGAAACAUAAUUUCACAAUUAUUCCUUUUUCCACCUUAAAUAAUAAGAGUAGAAUACUUUCUGUGUUUUUAUCUUAUACACAUGAAUAAAUGCUAUGGCUUAUCACAGUUCAACAGAGGAUUGAGCAUCA
B22: chr9:34241424:34241533:+|CDS|ENSG00000165006|unk|total|mutant (ssRNA)
RNA: GGGAGUUCUACAGUCCGACGAUCAACCCCAUCCUCGCCAGCUUGCAGCACAACAGCAUCCUCACACCAACUCGGGUCAGCAGCCGUGCCACGAAACAGAAAGUUCUCAGCCCACCUCACAUAAAGGCGGAUUUCAAUCUUGCUCAACAGAGGAUUGAGCAUCA

target: T1, UNK ZnF1-6 (called full-length); experiment: nsRBNS (natural sequence RNA bind-n-seq); RBNS binding buffer (assumed for nsRBNS): 25 mM Tris pH 7.5, 150 mM KCl, 3 mM MgCl2, 0.01% Triton X-100, 500 ug/ml BSA, 20 U/ml SUPERase-In, 4 C; UNK is unkempt and MSI1 is Musashi-1; names of the RNAs are library labels; protein concentration not given here; high values mean tight binding

| Binder | binding signal [enrichment R] |
| --- | --- |
| B1 | 0.452 |
| B2 | 2.01 |
| B3 | 19.7 |
| B4 | 22.2 |
| B5 | 1.84 |
| B6 | 0.264 |
| B7 | 5.33 |
| B8 | 0.434 |
| B9 | 0.72 |
| B10 | 0.591 |
| B11 | 1.39 |
| B12 | 1.19 |
| B13 | 3.53 |
| B14 | 1.01 |
| B15 | 0.665 |
| B16 | 0.924 |
| B17 | 0.288 |
| B18 | 3.94 |
| B19 | 0.585 |
| B20 | 0.868 |
| B21 | 0.535 |
| B22 | 0.846 |
